# Results taken from the supplement of paper PMC3334620.
# Over roughly 33,000 sequences, “E-score (-0.5 to 0.5)” has its median near -0.021; the highest 2% begin near 0.32. The list shows a part of the results.
# Target: T1, Zap1 (UniProt P47043)
# T1 sequence: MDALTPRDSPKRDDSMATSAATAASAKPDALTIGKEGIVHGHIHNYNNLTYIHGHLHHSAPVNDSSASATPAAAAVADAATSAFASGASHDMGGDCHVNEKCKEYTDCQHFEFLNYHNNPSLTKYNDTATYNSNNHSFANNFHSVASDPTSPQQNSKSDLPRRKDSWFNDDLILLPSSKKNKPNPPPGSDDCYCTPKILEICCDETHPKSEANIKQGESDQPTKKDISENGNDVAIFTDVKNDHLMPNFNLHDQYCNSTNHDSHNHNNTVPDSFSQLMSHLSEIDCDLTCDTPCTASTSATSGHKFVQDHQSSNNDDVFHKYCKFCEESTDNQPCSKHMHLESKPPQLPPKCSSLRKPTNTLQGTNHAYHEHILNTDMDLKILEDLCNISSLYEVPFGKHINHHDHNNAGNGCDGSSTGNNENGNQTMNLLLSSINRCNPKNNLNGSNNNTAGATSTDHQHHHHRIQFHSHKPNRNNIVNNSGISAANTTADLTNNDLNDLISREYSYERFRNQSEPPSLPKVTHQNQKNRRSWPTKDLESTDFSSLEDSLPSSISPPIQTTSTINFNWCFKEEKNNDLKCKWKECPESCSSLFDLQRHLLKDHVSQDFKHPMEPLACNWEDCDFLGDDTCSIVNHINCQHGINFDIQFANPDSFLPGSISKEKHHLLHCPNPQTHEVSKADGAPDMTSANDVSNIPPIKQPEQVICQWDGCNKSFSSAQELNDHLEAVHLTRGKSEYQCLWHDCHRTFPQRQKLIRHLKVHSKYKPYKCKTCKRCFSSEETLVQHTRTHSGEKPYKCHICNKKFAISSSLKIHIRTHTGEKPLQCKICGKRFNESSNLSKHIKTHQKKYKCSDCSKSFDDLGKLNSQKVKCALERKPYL
# Assay: PBM E-score (8-mer binding enrichment) (E-score (-0.5 to 0.5)); higher = stronger / more preferred TF binding; most listed sequences are background and not binding sites
# Settings: protein concentration: 200 nM; construct: GST-full length
# Description: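 Universal 'all 10-mer' protein binding microarrays (Agilent AMADID 015681) probed with GST-tagged S. cerevisiae TFs (full-length or DBD) made by in vitro transcription/translation (PURExpress), about 100-200 nM. Bound TF was detected with fluorescent anti-GST. Each ungapped 8-mer (which stands for itself and its reverse complement) is scored by the PBM enrichment score (E-score), a modified Wilcoxon-Mann-Whitney statistic from -0.5 to +0.5, computed with the Universal PBM Analysis Suite. Scale: above 0.35 generally sequence-specific binding.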
row,Sequence,PBM E-score
1,ATTAACTA,0.0476
2,CCAACTGG,0.0919
3,ATATACCA,0.078
4,ATTAATGG,0.146
5,GCTGAGTA,-0.0287
6,CCATATAG,-0.0702
7,TAGGTGGA,-0.173
8,GGATCATA,-0.091
9,AAATATAC,0.163
10,CGTATGGA,0.05
11,CGACCAAA,0.224
12,GTTCTCCA,-0.0516
13,AACTAGTT,0.0252
14,AGAAGCTC,-0.108
15,CATAAGAG,-0.0365
16,AACGGTGG,0.0901
17,CATGCAGC,-0.102
18,AGAGAGGG,-0.274
19,GGAGTGCC,-0.0802
20,AAAGCTGC,-0.0979
21,ACCGGGCA,-0.00288
22,ATGCCTCG,-0.115
23,CCAAGATC,-0.0112
24,ATCTTCCC,-0.0623
25,AAATGTCT,-0.207

row,Sequence,PBM E-score
1,AATGAGCC,-0.226
2,GTCAATCA,-0.0255
3,CGCGTCCG,-0.112
4,ACGATGAC,-0.0774
5,GCCCGACA,-0.00925
6,AACCGATG,0.182
7,ACTGCACG,0.0724
8,CGCTCGTC,-0.285
9,ACGTTTCC,-0.157
10,CGTCCGCA,-0.158
11,GATGATTA,-0.104
12,CGCTCCAA,-0.192
13,GTTCTAAA,0.211
14,CGGAGTTA,0.0308
15,CCCCGAGA,0.0397
16,GCCTACAA,0.0857
17,AACACTTG,-0.0457
18,TCGAGGAA,-0.0701
19,AAACCGTC,0.0956
20,ACGTAAAC,-0.00614
21,TACTTCGA,0.0268
22,GGGCTAGA,-0.153
23,AATGCTAT,-0.00383
24,ACTCCTCC,-0.187
25,TCGAAAAA,0.141

row,Sequence,PBM E-score
1,AGGCATGA,-0.292
2,AAGCCTCA,-0.134
3,TCTCCTAA,0.0322
4,ACAACTAG,0.107
5,GGTTCCAA,0.249
6,AACAGCGC,-0.0206
7,AATAGGCT,-0.13
8,AAGACCCG,0.0601
9,GGGATAAC,0.0475
10,CCGAGCGA,-0.12
11,CAAATGCC,-0.192
12,CAGCGCCC,-0.293
13,CTAATTGC,0.0789
14,CCTGTTGC,0.0211
15,GTCGGCAA,-0.158
16,GGGTCTCA,-0.0213
17,AGCTGCAA,-0.211
18,ACCGACTA,-0.234
19,CGATTTGA,-0.0209
20,GGGTGGAC,-0.0732
21,GACCCCGA,0.244
22,GAACTCCC,-0.0452
23,GGAGCTTA,-0.0905
24,GGGCCTCA,0.0714
25,ACTTTATC,0.00981

row,Sequence,PBM E-score
1,CAAACGCC,-0.111
2,CAGACGAC,-0.285
3,ACGTTAGA,-0.0993
4,AAGTCACA,-0.034
5,CGCCGTTA,-0.0676
6,GGAATGAC,-0.079
7,GGTTCCCA,0.164
8,CCCAACAG,-0.119
9,GTCACGAC,0.124
10,ATAACCAC,0.46
11,AAATCAGT,-0.0332
12,ATTGGAGC,-0.117
13,GAACAGGA,-0.00724
14,ATGTCTAA,0.0432
15,AGTGATAC,0.147
16,CCTCCACA,-0.0417
17,CAAGTTGC,-0.112
18,GTGCCTTA,-0.0871
19,GTTTAACA,-0.00677
20,AGTACCTC,0.146
21,AGGTCGAT,0.0976
22,GGCTTCCC,-0.38
23,GATACGAC,0.065
24,GATCTCCA,-0.171
25,ACTCTTAG,0.106

row,Sequence,PBM E-score
1,GATATCGA,0.0362
2,ATCCGCCA,-0.315
3,GAACCAAC,0.113
4,ACGTTCAT,-0.1
5,AAGAATCT,0.0453
6,GGGCCAGA,-0.0833
7,GACACCCA,-0.0772
8,CACCTATA,0.0311
9,GACGGTAA,0.0316
10,AGACGTCG,-0.222
11,CAATTAGG,0.125
12,CTCCAATA,0.0589
13,ACAAAGGA,0.0193
14,ATCGGCCG,-0.138
15,GAAGCGAA,0.0596
16,ACAGACTG,-0.105
17,ATGATTAA,0.159
18,TCACACGA,0.0506
19,AGTATCGG,0.00333
20,ACATTCGT,-0.0131
21,GCCCTGAC,-0.255
22,TACACTGA,-0.0732
23,GTAAAGAC,0.141
24,AGCAACCC,0.239
25,AGGGATCA,0.0782

row,Sequence,PBM E-score
1,ATTAATTC,0.152
2,CACTGAGC,-0.214
3,GTGAGAAC,0.0954
4,CCCTCAAA,0.142
5,AACGGGGT,0.0935
6,ACAAATGC,0.196
7,CGGAAACC,-0.0362
8,AGAAAACA,0.167
9,AAAGGACA,0.177
10,TAGCCGCA,-0.121
11,GTCATGGA,0.132
12,CGGTATAA,0.0772
13,AAGCCGTG,-0.0561
14,CGGGTTTC,0.289
15,AACAGATT,0.179
16,ATATCCTG,0.103
17,CGGTTAAC,0.232
18,AGGCCTAC,-0.114
19,GACCTCAC,0.0004
20,CATCGTTA,-0.044
21,TCCCAGCA,-0.092
22,ATTCATTA,0.115
23,CATTGTGG,0.0202
24,GAGGGCCA,-0.0719
25,AAAACGCC,-0.132

row,Sequence,PBM E-score
1,AGACTGGC,-0.349
2,CTGTTGCA,0.201
3,ACCTCTTC,0.278
4,GCTATCTA,-0.00521
5,CTTCACTC,-0.189
6,AAAACACT,0.14
7,GGCTTACC,-0.036
8,CGTTAAGC,-0.0783
9,AGGCCCTC,-0.0894
10,AACGAGAT,-0.115
11,CCAAGTAC,0.135
12,AGAACGTC,-0.105
13,GATTCTCA,0.0637
14,ACCTGCGC,-0.0387
15,AGGGACGC,0.0184
16,AGGCATCG,-0.158
17,CCCTAACA,0.255
18,GAACGTAA,0.138
19,GAGTCTGC,-0.278
20,AAGCTGTC,-0.0854
21,CAGCCTTC,-0.181
22,GTACTGGA,-0.00941
